{
  "source": "PubChem BioAssay AID485313",
  "about": "(National Center for Advancing Translational Sciences (NCATS), 2010)",
  "note": "About 7,600 (2.4%) of roughly 320,000 compounds were called active. Inconclusive means that the source gave no clear call. Such entries were picked first, then a sample of the others. Calls come from the whole dose curve; as a rule, active = well fitted activation curve with a large enough effect; inconclusive = small, poorly fitted or top-dose-only effect; inactive = no such curve, though single readings can be large or run the other way. No potency is given beside an inconclusive call; the fits are too rough. Potency is the fitted concentration of half-maximal effect; tags give direction and shape of the fitted curve.",
  "data": [
    {"assay": "qHTS Assay for NPC1 Promoter Activators; note: nearly all actives have a fitted effect of over 60% in size", "settings": "Huh7 NPC1 promoter luciferase reporter, 24 h; series mostly up to 9.22 µM", "in_short": "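Luminescence from an NPC1 promoter-driven luciferase reporter in stably transfected Huh7 cells was measured after 24 h compound treatment at 37 °C, followed by 10 min ambient incubation with luciferase detection reagent.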", "values": [
      {"smiles": "COc1ccc(/C=N/OCc2ccccc2C#N)c(OC)c1", "Potency": "active: 3.98 µM"},
      {"smiles": "CCOc1ccc(C(=O)CCCC(=O)c2ccc(OCC)cc2)cc1", "Potency": "inconclusive [activator, single point]"},
      {"smiles": "Nc1ccc(C(=O)Nc2nccs2)cc1", "Potency": "inconclusive [activator, partial curve]"},
      {"smiles": "COc1ccc(-c2nc(CS(=O)(=O)CC(=O)NCc3ccc(F)cc3)c(C)o2)cc1", "Potency": "inconclusive [activator, single point]"},
      {"smiles": "Cn1c(-c2ccc3ccccc3n2)nc2cnccc21", "Potency": "active: 3.98 µM"},
      {"smiles": "Cc1[nH]n(C(N)=S)c(=O)c1N=Nc1ccc(Cl)cc1Cl", "Potency": "inconclusive [activator, single point]"},
      {"smiles": "O=C(Nc1cccc(O)c1)c1ccc(C(=O)c2ccccc2)o1", "Potency": "inconclusive [activator, single point]"},
      {"smiles": "O=c1c2ccccc2nc(N/N=C/c2ccccc2)n1O", "Potency": "inconclusive [activator, partial curve]"},
      {"smiles": "CCOc1ccc(N(CC(=O)NCc2ccccc2OC)S(C)(=O)=O)cc1", "Potency": "inconclusive [activator, single point]"},
      {"smiles": "CCCCOc1ccc(CSc2nncn2N)cc1", "Potency": "inconclusive [activator, single point]"},
      {"smiles": "C[C@@H]1C(NC(=O)c2ccccc2)CC2CC1C2(C)C", "note": "(stereo not given in full)", "Potency": "inactive"},
      {"smiles": "Cc1ccccc1OCC(=O)N=Nc1c(O)n(C)c2ccccc12", "Potency": "inconclusive [activator, single point]"},
      {"smiles": "O=C(N/N=C/c1ccncc1)c1ccccn1", "Potency": "inconclusive [activator, partial curve]"},
      {"smiles": "COc1ccc(CCNC(=O)c2ccc3nc(N4CCCCC4)sc3c2)cc1OC", "Potency": "inconclusive [activator, partial curve]"},
      {"smiles": "COc1cc2ccccc2cc1C(=O)Nc1ccc(Cl)cn1", "Potency": "active: 2 µM"},
      {"smiles": "O=C(Nc1ccc(Br)cc1)Nc1ccccc1Cl", "Potency": "active: 2.24 µM"},
      {"smiles": "CCN1C(=O)/C(=C/N2CCc3ccccc3C2)SC1=S", "Potency": "inconclusive [activator, partial curve]"},
      {"smiles": "CC(C)(C)c1cc(C(=O)NCc2cc(F)cc3c2OCOC3)n(Cc2ccccc2)n1", "Potency": "inconclusive [activator, single point]"},
      {"smiles": "O=[N+]([O-])c1ccc(COc2ccccc2/C=N/O)cc1", "Potency": "inconclusive [activator, partial curve]"},
      {"smiles": "O=C(c1ccco1)N1CCN(Cc2ccc(F)cc2Cl)CC1", "Potency": "inconclusive [activator, single point]"}
    ]}
  ]
}
